Measured values taken from PubChem BioAssay AID1240 (Sanford-Burnham Center for Chemical Genomics, 2008).
Among all 50,000 compounds or so, about 800 (1.6%) showed an effect of 50% or more. This is one part of the list.

The molecules below were run against Bcl-2-like protein 10 (Homo sapiens) (UniProt Q9HD36) (assay: TR3 peptide-Bcl-B binding displacers, biochemical primary FP assay, phenotype converters (AID 1240;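 note: 0% = Bcl-B with tracer peptide and DMSO and 100% = tracer peptide lacking Bcl-B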)). Conditions: GST-Bcl-B / FITC-TR3 peptide fluorescence polarization; stronger effect = higher value; compound at 3.75 mg/L.
UniProt Q9HD36, sequence (Q9HD36 whole entry, looked up): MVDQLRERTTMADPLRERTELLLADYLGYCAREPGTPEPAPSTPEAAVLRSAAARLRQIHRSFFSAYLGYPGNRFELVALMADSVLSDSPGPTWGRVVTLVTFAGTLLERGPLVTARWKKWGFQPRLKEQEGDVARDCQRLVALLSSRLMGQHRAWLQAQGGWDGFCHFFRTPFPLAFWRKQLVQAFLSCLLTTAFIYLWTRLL

SMILES	displacement [%]
COC(=O)c1c(NC(=O)C2CC2c2ccccc2)sc(C)c1C (stereo not given)	2.6
O=C(COc1ccc(Cl)cc1Cl)Nc1ccc(I)cc1Cl	12.3
Cc1ccc2c(c1)N(C(=O)CN1C(=O)C3CCCCC3C1=O)C(C)(C)c1ssc(=S)c1-2 (stereo not given)	7.6
Cc1ccccc1N(CC(=O)NCCc1ccc(Cl)cc1)S(=O)(=O)c1ccccc1	7.4
Cc1occc1C(=O)NNC(=O)c1cccc(F)c1	-8.4
Cc1ccc(CN2CCN(/N=C/c3ccc(Br)s3)CC2)cc1	8.3
Cn1c(-c2ccccn2)nc2ccccc21	31.1
COC(=O)C1=C(C)N(C)C(C)=C(C(=O)OC)C1c1ccc(OC)cc1OC	-0.8
CC1=NN(C(=O)c2cccnc2)C(O)(c2ccccc2)C1 (stereo not given)	-6.3
COc1ccc(-c2cc(C(=O)NCCc3ccccc3)c3ccccc3n2)cc1OC	-5.6
CC(/C=C1\SC(=S)N(NC(=O)c2cccc(O)c2)C1=O)=C\c1ccccc1	2.3
O=c1c(-c2ccccc2)[n+]([O-])c2ccccc2n1O	21.7
CCN(CC)c1ccc(/C=C2/SC(=S)N(CNc3cccc(C)c3)C2=O)cc1	-7.4
COC(=O)C1=C(C)N(Cc2ccco2)C(=O)/C1=C\c1ccc(O)c(OC)c1	8.1
CCCOc1cc(OCCC)c(C#CCN2CCCCC2)cc1C#CCN1CCCCC1	3.4
CCOC(=O)C(C#N)C1(c2ccc(OC)cc2)CCOC(C)(CC)C1 (stereo not given)	1.2
C=C1CSc2nc(=O)c3c4c(sc3n21)CCC4	11.7
CCOC(=O)c1ccccc1NC(=O)CN(c1cc(OC)ccc1OC)S(C)(=O)=O	13.6
CC(=O)Nc1ccccc1C(=O)N1CCc2ccccc2C1	-5.9
COc1cc(C(=O)N(C)Cc2ccccc2)c([N+](=O)[O-])cc1OC	-1.4
Cc1ccccc1C(=O)NN1C(=O)/C(=C\c2ccncc2)SC1=S	12.3
O=C(Nc1ccc(Cl)cc1)Nc1nnc(CSCc2ccccc2)s1	4.7

SMILES	displacement [%]
CCOC(=O)c1nc2nc(-c3ccccc3)cc(C(F)(F)F)n2n1	-3.5
O=C1C=C(Nc2ccc([N+](=O)[O-])cc2)CN1	4.5
COc1ccccc1NC(=O)c1ccc(CN2CCOCC2)cc1	-21.5
O=C(NCCc1ccc(Cl)cc1)C(=O)NCc1ccccc1	8
COc1ccc(OC)c(NC(=O)Cc2ccc([N+](=O)[O-])cc2)c1	6.6
O=C(Nc1ccc(Br)cn1)c1cc2ccccc2o1	1.2
O=C(c1sc2ccccc2c1Cl)N1CCN(Cc2ccc3c(c2)OCO3)CC1	0.4
COc1ccc(S(=O)(=O)N2CCN(CCN3C(=O)c4cccc5cccc(c45)C3=O)CC2)cc1	-3.8
CCN(CC)c1ccc(N2C(=O)/C(=C/c3ccccc3[N+](=O)[O-])SC2=S)cc1	-5.2
Cc1cccc(CN2CCN(C(=O)c3ccc(F)cc3)CC2)c1	-17.7
O=C(c1ccc(F)cc1)N1CCN(c2cccc(Cl)c2)CC1	2.4
COc1ccc(Cl)cc1C(=O)N(C)c1ccccc1	-2.5
Cc1ccccc1NCC(=O)N/N=C\c1ccc(Cl)c([N+](=O)[O-])c1	6.9
CCOP(=O)(OCC)/C(=C(\NC(=O)c1ccccc1)C(=O)Nc1ccccc1C(F)(F)F)c1ccccc1	12.2
C=C(C)Cn1c(SCC(=O)O)nnc1-c1ccc(C(C)(C)C)cc1	2.2
COc1ccc(CC(=O)N2N=C(c3ccc(F)cc3)CC2(O)C(F)(F)F)cc1 (stereo not given)	-12.5
COCCCNC(=O)COc1ccc2ccccc2c1	10.7
CC(C)OC(=O)c1c(-c2ccc(Cl)cc2Cl)csc1NC(=O)/C=C/C(=O)O	-7.5
COc1cccc(-c2nc3cc(NC(=O)c4ccc(Br)o4)ccc3o2)c1	-4.8
Cc1ccccc1OCC(=O)Nc1ccc(Br)cn1	3.1
CC1=C(C(=O)Nc2ccccc2)C(c2ccccc2F)NC(=S)N1 (stereo not given)	1.4
O=C(NCc1cccnc1)c1nn2c(c1Cl)NC(c1ccccc1)CC2C(F)(F)F (stereo not given)	6.2

SMILES	displacement [%]
O=[N+]([O-])c1ccc(C=NN2CCN(Cc3ccccc3)CC2)cc1	-2.6
CCOCCOC(=O)C1=C(C)N(C)C(=O)NC1c1ccccc1Cl (stereo not given)	-24.3
CCOC(=O)C1=C(C)N(CC(C)C)C(=O)/C1=C\c1ccco1	12.3
O=C(COc1ccccc1)N1N=C(c2ccc([N+](=O)[O-])cc2)CC1(O)C(F)(F)F (stereo not given)	-12.5
O=C(Nc1ccccc1I)c1ncn[nH]1	-0.6
Cc1ccc(-c2nc3ccccc3c(=O)n2CCCn2ccnc2)cc1	-8.9
O=[N+]([O-])c1ccc(/C(=N/O)c2ccncc2)cc1	9.5
O=C1CSC(=S)N1/N=C/c1cccc(OCCOc2ccc(Br)cc2)c1	10
COc1ccc(OC)c(C2NC(=S)NC(C)=C2C(=O)Nc2ccccc2OC)c1 (stereo not given)	1.1
CCOc1ccccc1/C=C(/NC(=O)c1ccccc1)C(=O)N1CCOCC1	10.4
O=[N+]([O-])c1ccc2c(c1)C(C#Cc1ccccc1)C1CCCCC1(N1CCOCC1)O2 (stereo not given)	11
O=C(c1ccccc1Cl)N1N=C(c2ccc(Cl)cc2)CC1(O)C(F)(F)F (stereo not given)	2.3
COc1ccc(S(=O)(=O)N2CCN(Cc3cc(OC)c(OC)c(OC)c3)CC2)cc1	-7.7
O=C(Nc1cccc(Cl)c1)/C(=C\c1ccco1)NC(=O)c1cccs1	-3.8
O=C(NCc1ccccn1)C(=O)Nc1ccccc1F	-20.9
CCc1ccccc1NC(=O)COc1ccc2ccccc2c1	5.2
CCN(CC)c1ccc(NC(=O)C(C)(C)C)cc1	10.5
CC1CCCC(C)N1C(=O)c1nn2c(c1Cl)NC(c1ccc(Cl)cc1)CC2C(F)(F)F (stereo not given)	8.1
CC1(C)CC(=O)C(=Cc2cn(-c3ccccc3)nc2-c2ccccc2)C(=O)C1	8.7
Cc1ccoc1C(=O)Nc1ccccc1	14.2
CN1CCN(C2=C(Cl)C(=O)N(c3ccc(Br)cc3)C2=O)CC1	15.9
Clc1ccc(-c2nnc(-c3ccccc3)o2)cc1	10.6

SMILES	displacement [%]
CCOC(=O)C1=C(C)N=c2s/c(=C\c3c[nH]c4ccccc34)c(=O)n2C1c1cccc(OC)c1 (stereo not given)	32.8
Cc1c(Br)c(C(F)(F)F)nn1CC(=O)Nc1c(F)cc(F)cc1Br	-4
CCOc1ccc(N(CC(=O)N2CCOCC2)S(=O)(=O)c2ccccc2)cc1	-4.4
Cc1ccc(-c2cc(NC(=O)c3cccc(C)c3)n[nH]2)cc1	16.3
Cc1ccc(N2CCN(C(=O)Nc3ccc(Cl)cc3Cl)CC2)cc1	5.9
O=C1CC(n2ccnc2)C(=O)N1c1ccccc1 (stereo not given)	-3.4
CC(Oc1ccc2oc(-c3ccccc3)c(C(=O)O)c2c1)C(=O)O (stereo not given)	59.2
CCCC1CCc2c(sc(N)c2C(N)=O)C1 (stereo not given)	5.6
CC(=O)Nc1ccc(NS(=O)(=O)c2ccc(C)cc2C)cc1	23.6
Ic1ccc(N/N=C/c2ccc(N3CCOCC3)cc2)cc1	10
O=C(Nc1ccccc1C(=O)O)c1cccc(S(=O)(=O)Nc2ccc(F)cc2)c1	2.8
CCOc1ccc(S(=O)(=O)N2CCN(c3ccccc3OC)CC2)cc1	-5.8
CCOc1ccccc1N(CC(=O)Nc1cccc(C(F)(F)F)c1)S(=O)(=O)c1ccccc1	1.6
COc1ccc(N(CC(=O)Nc2cc(C)ccc2C)S(=O)(=O)c2ccc(C)cc2)cc1	4.5
COc1cccc(CN2CCN(Cc3cccnc3)CC2)c1	-13.5
CN(C)/C=C1\N=C(c2ccc(C(C)(C)C)cc2)OC1=O	0.4
CN(C)c1ccc(C2C(C(=O)OC(C)(C)C)C(=O)CC(C)(O)C2C(=O)OC(C)(C)C)cc1 (stereo not given)	-5.1
CCOC(=O)COc1ccc(/C=C2\C(=O)NC(=O)N(c3ccc(C)cc3)C2=O)cc1OC	4.1
CCN(CC)c1ccc(NC(=O)c2ccc(OC)c([N+](=O)[O-])c2)cc1	8
CCc1cc(=O)oc2cc(OCc3ccc(Cl)cc3)ccc12	0
CCN1C(=O)c2ccccc2S1(=O)=O	-5.9
CCCCCCCC(=O)N/N=C/c1c[nH]c2ccccc12	-5.7

SMILES	displacement [%]
CCSc1nnc(NC(=O)/C=C/c2ccc(C(C)(C)C)cc2)s1	-2.5
Cc1cc(C)n(-c2nc(C)nc(NCc3ccccc3)n2)n1	-16.2
Cc1ccc(Cl)cc1NC(=O)C(=O)NCCO	-14.9
O=C(c1sc2cc(Cl)ccc2c1Cl)N1CCOCC1	2
C=CCNC(=O)C(NC(=O)c1ccccc1)=C1CCCCC1	-11.3
CCc1ccc(NC(=O)CN(c2cccc(Cl)c2)S(=O)(=O)c2ccccc2)cc1	-12.3
CCc1ccccc1NC(=O)CC1S\C(=N/N=C(C)/C=C/c2ccc(OC)cc2)NC1=O (stereo not given)	14.7
O=C(COc1ccc(Br)cc1)Nc1ccc2c(c1)oc1ccccc12	-2.6
COc1cc(OC)c(NC(=O)c2ccc(Cl)c(Cl)c2)cc1Cl	2.9
N/C(=N\OC(=O)c1ccc(Br)cc1)c1ccc([N+](=O)[O-])cc1	5.6
Cc1ccc(S(=O)(=O)N(CC(=O)Nc2ccccc2F)c2cc(C)cc(C)c2)cc1	-3
COc1ccc(S(=O)(=O)N(CCc2ccccc2)CC(=O)N2CCCC2)cc1	-12.5
CC(=NCCc1ccccc1)C1=C(O)CSC1=O	13.6
COc1cccc(-c2cc(C(=O)Nc3sc(C)c(C)c3C(N)=O)c3ccccc3n2)c1	-5.6
CCCOc1ccc(/C=N/N=C/c2ccc(OCCC)cc2)cc1	-1.1
COc1ccc(N=Cc2c(O)n(-c3ccc(F)cc3)c(=O)[nH]c2=O)c(OC)c1	-10.5
COc1cc(/C=N/n2cnnc2)ccc1O	11.6
Cc1cc(C)n(-c2cc(NCCO)nc(-c3ccc(Br)cc3)n2)n1	-0.9
O=C(Nc1ccccc1C(=O)O)c1ccc2c(c1)C(=O)N(C1CCCCC1)C2=O	15.1
Cc1ccc(OCC(=O)Nc2cc(Cl)cc(Cl)c2)cc1C	6.5
Cc1ccc(-n2[nH]c(=O)c(/C=C3\C=Nc4ccccc43)c2O)cc1	-0.9
O=C(CN1C(=O)c2ccccc2C1=O)Nc1ccccc1Br	-5
